This is one part of the list. Many values rest on one well or one pass, so single values are uncertain.
How the values were obtained:
Assay in all cases: cell count relative to DMSO control; melanoma cells; higher = more viable cells
Conditions in all cases: library dose: standard library concentration; 72 h
G361 = system: G361
IPC-298 = system: IPC-298
IST-MEL1 = system: IST-MEL1
LB2518-MEL = system: LB2518-MEL
LOXIMVI = system: LOXIMVI
MEL-HO = system: MEL-HO
MZ2-MEL = system: MZ2-MEL
MeWo = system: MeWo
RPMI7951 = system: RPMI7951
RVH-421 = system: RVH-421
SkMel28 = system: SkMel28
SkMel2 = system: SkMel2
SkMel30 = system: SkMel30
SkMel5 = system: SkMel5
UACC257 = system: UACC257
UACC62 = system: UACC62
WM115 = system: WM115
WM1716 = system: WM1716
WM1745 = system: WM1745
WM3526 = system: WM3526
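Note: cells treated in 1,536-well plates, then fixed and DAPI-stained, with nuclei counted from automated high-throughput microscope images.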

SMILES | cell count (G361) [%] | cell count (IPC-298) [%] | cell count (IST-MEL1) [%] | cell count (LB2518-MEL) [%] | cell count (LOXIMVI) [%] | cell count (MEL-HO) [%] | cell count (MZ2-MEL) [%] | cell count (MeWo) [%] | cell count (RPMI7951) [%] | cell count (RVH-421) [%] | cell count (SkMel28) [%] | cell count (SkMel2) [%] | cell count (SkMel30) [%] | cell count (SkMel5) [%] | cell count (UACC257) [%] | cell count (UACC62) [%] | cell count (WM115) [%] | cell count (WM1716) [%] | cell count (WM1745) [%] | cell count (WM3526) [%]
O=C(Nc1cc(C(F)(F)F)cc(C(F)(F)F)c1)c1cc(Cl)ccc1O + Cn1cnc2c(F)c(Nc3ccc(Br)cc3Cl)c(C(=O)NOCCO)cc21 [selumetinib] (first compound 0.08 µM, partner dose 0.075 µM) | 68.8 | 52.4 | 73.7 | 54.4 | 170 | 83 | 76.9 | 73.5 | 114 | 85.4 | 47 | 66.6 | 61.1 | 67.1 | 87.9 | 47.2 | 51.8 | 64.9 | 71.4 | 55.8
O=C(Nc1cc(C(F)(F)F)cc(C(F)(F)F)c1)c1cc(Cl)ccc1O + Cc1ccc(NC(=O)c2cccc(N(C)C)c2)cc1NC(=O)c1ccc(O)cc1 [ZM336372] (first compound 0.08 µM, partner dose 10 µM) | 82.5 | 85.6 | 74.2 | 80.4 | 129 | 79.1 | 85.7 | 96.9 | 67.8 | 128 | 105 | 92 | 84.5 | 80.7 | 73.4 | 94.7 | 82 | 104 | 81.3 | 101
Cc1cc(N2CCOCC2)cc2[nH]c(-c3c(NC[C@@H](O)c4cccc(Cl)c4)cc[nH]c3=O)nc12 + O=C(O)c1ccc(-c2c[nH]c3ncc(-c4ccccc4)cc23)cc1C1CCCC1 [GSK650394] (first compound 1 µM, partner dose 0.8 µM) | 56 | 70 | 59.9 | 87.8 | 44.6 | 66 | 89.4 | 59 | 58.6 | 73.5 | 63.5 | 73.5 | 76 | 59.3 | 76 | 97.5 | 117 | 93.6 | 46.6 | 65.1
O=C(O)[C@@H]1[O][Sb](=[O])([O][Sb]2(=[O])[O][C@H]([C@H](O)CO)[C@H](O)[C@H](C(=O)O)[O]2)[O][C@H]([C@H](O)CO)[C@@H]1O (stereo not given in full) [stibogluconate] + CC(=O)c1c(C)c2cnc(Nc3ccc(N4CCNCC4)cn3)nc2n(C2CCCC2)c1=O [palbociclib] (first compound 10 µM, partner dose 0.2 µM) | 63.2 | 76.7 | 73.5 | 47.5 | 57.4 | 65 | 69.2 | 52.3 | 57.8 | 61.9 | 35.6 | 57.4 | 64.4 | 54.9 | 85.5 | 59.3 | 46.3 | 39.2 | 67.7 | 54.2
O=C(Nc1ccccc1)c1cc([N+](=O)[O-])ccc1Cl + O=c1cc(-c2cccc3c2Sc2ccccc2S3)oc(N2CCOCC2)c1 [KU55933] (first compound 10 µM, partner dose 5 µM) | 66.2 | 90.6 | 95.7 | 75.9 | 107 | 74.8 | 60.9 | 70.7 | 59.5 | 58.6 | 64.8 | 88.9 | 117 | 80.8 | 76.9 | 82.3 | 79.5 | 6.57 | 73.4 | 77.5
O=C(O)c1ccc2c(c1)nc(Nc1cccc(Cl)c1)c1ccncc12 + Nc1ncn([C@H]2C[C@H](O)[C@@H](CO)O2)c(=O)n1 [decitabine] (first compound 2 µM, partner dose 0.5 µM) | 60.5 | 37.4 | 58.1 | 77.8 | 50.9 | 63.4 | 48.7 | 54.7 | 47.3 | 87.3 | 53.3 | 66.9 | 60.6 | 52.4 | 87.7 | 74.9 | 68.7 | 68.6 | 67.3 | 68.6
Cc1cc(N2CCOCC2)cc2[nH]c(-c3c(NC[C@@H](O)c4cccc(Cl)c4)cc[nH]c3=O)nc12 + COc1ccc(-c2ccc3c(N4CCOCC4)nc(N4C[C@@H](C)O[C@@H](C)C4)nc3n2)cc1CO [KU0063794] (first compound 1 µM, partner dose 0.1 µM) | 47.8 | 70.1 | 100 | 57.1 | 73.6 | 89 | 67 | 56.1 | 81 | 83.7 | 70 | 68.4 | 70.5 | 57.8 | 98.2 | 106 | 85.7 | 94.1 | 52.5 | 56.1
O=C(Nc1ccccc1)c1cc([N+](=O)[O-])ccc1Cl + O=C1NC(=O)/C(=C/c2ccc(-c3ccc(F)cc3O)o2)S1 [AS252424] (first compound 10 µM, partner dose 5 µM) | 87.7 | 88 | 108 | 100 | 53 | 75.2 | 85.7 | 92.2 | 81.9 | 72.2 | 56.1 | 0.909 | 74.4 | 72 | 94.5 | 72.3 | 89.3 | 92.5 | 60.3 | 75
